Experimental data: the supplement of paper PMC8728848
The full list was thinned out, with the strongest signals kept by preference.

Legend:
Neu5Gc(a2-6)GalNAc = assay: glycan array binding signal (z-score within array); higher = stronger binding; settings: glycan notation: IUPAC condensed, linker removed
In short: (§1)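 From the Consortium for Functional Glycomics database, 3228 arrays were curated, keeping only those whose protein sequence was available. Binding is given as a within-array Z-score averaged across arrays sharing a protein sequence and across linkers. Negative Z-scores can be read as non-binding.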

[1] = system: Neu5Gc(a2-8)Neu5Gc(a2-6)Gal(b1-4)GlcNAc; assay: as above; settings: glycan notation: IUPAC condensed, linker removed
In short: as §1

Row | Substance | glycan array binding signal (z-score) (Neu5Gc(a2-6)GalNAc) | glycan array binding signal (z-score) [1]
1 | Siglec-2 (Homo sapiens) (chain not printed) | -0.208 | 
2 | L-Ficolin (Homo sapiens) (chain not printed) | 1.27 | 
3 | Gal 3 (Homo sapiens) (chain not printed) |  | -0.187
